# Results from the supplement of paper PMC11417369.
# ± gives the standard deviation of the averaged measurements. The list shows a part of the results.
# Tested on: PfAP2-EXP AP2 domain (GST-tagged)
# Assay: gcPBM binding intensity (ln(normalized median fluorescence intensity)); higher = stronger DNA binding
# Summary of the method: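 In this array assay, P. falciparum DNA-binding domains with a GST tag, expressed in E. coli, were applied for 1 h to primer-extended double-stranded 36-bp intergenic genomic probes and negative controls on an Agilent 4 × 180k array. Bound protein was visualised with Alexa488 anti-GST antibody at 488 nm. Binding intensity is the highest Masliner-normalised natural-log median intensity across replicate spots of either probe orientation.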
row,Sequence,gcPBM binding intensity (ln)
1,TATTTTTCCATTGGGGGTACATGTGTTATATTTATT [XGTACX_site5914],10.4 ± 0.76
2,TACAAAATATATATGACACACACAAAAAAAGTATAT [CACACA_site8455],8.79 ± 0.49
3,ATATATATGCATATATGTACTTAAAATATAAAGGCA [XGTACX_site3256],8.64 ± 0.29
4,GTATACCAACATATTATACACACCTTTATATTTTTT [CACACA_site2153],8.62 ± 0.39
5,TTGTATACATAAAATGGTACAGAATATATAATTCTA [XGTACX_site7236],8.46 ± 0.28
6,ATAAGATGATGGAACTGTAATATATATATATATATA [CACACA_negctrl_site839],10 ± 0.5
7,TTTAAGAGTTGCACACGTACAAAAAAAAAAAAAAAA [XGTACX_site7406],8.57 ± 0.15
8,ATTACATGTTACTTAACACACATCTGGTGAAATAAT [CACACA_site171],8.63 ± 0.42
9,TTAATTAAAATTTATACATGCATAAAAGAAATACAC [TGCATGCA_site537],9.36 ± 0.35
10,GTAATGAAACATTGCACACATATAATAATATAATAT [CACACA_site1422],8.63 ± 0.38
11,ATTTTTTTCTTTTCTTTTTTCTTTTTTTTTTTTGGT [CACACA_negctrl_site1146],8.35 ± 0.61
12,TTATACTGTTTCAGAAAAATAAAGAATGAAAGTATT [XGTACX_negctrl_site230],8.73 ± 0.31
13,TTTTTATATTCCCCCAGTACATATATAATAGTAGTA [XGTACX_site7927],10 ± 0.3
14,AATAAAAAAATAAAATGTACATACAAATAAATAAAT [XGTACX_site5153],8.89 ± 0.3
15,TGCAACAAAATAAACACACACACACCCCCACAAAAA [CACACA_site3388],9.78 ± 0.54
16,TATTTTAATGAAGCATTTAAGGGAAAAAAAAAAAAA [TGCATGCA_negctrl_site606],8.4 ± 0.59
17,TTCATTTTAATTTCCAGTACACATATATATACATAT [XGTACX_site558],8.79 ± 0.38
18,ATGTCATAAATGTACGCACACATACATAAACATATA [CACACA_site4530],8.715 ± 0.064
19,ATTTATTTCTATAATACACACAAATATCTTAATTAA [CACACA_site7801],8.19 ± 0.35
20,AATATAATACAATATTGTACATAATATAAATTAAAA [XGTACX_site4064],8.46 ± 0.37
21,ATTATATTTATGTTGGTGCATTATACATGAAATTTA,9.36 ± 0.57
22,TATATGTTATATTGGACACACACAATAAACATTATG [CACACA_site8480],8.57 ± 0.49

row,Sequence,gcPBM binding intensity (ln)
1,AAACATAAAGAAAAAAAAAATATATATTTATTTATT [GTGCAC_negctrl_site357],8.32 ± 0.33
2,TTATTTAAATATTGATGTACTCTCCTTATTATAATA [XGTACX_site1240],8.74 ± 0.4
3,ATAAAAATGGTGTTAACACACACATATATATATATA [CACACA_site8089],10.1 ± 0.38
4,ATATATTAACAAAAGGTGCTTTTGGCAAAGTATAAT,8.83 ± 0.31
5,GGTAATTATTTTGGTTGTACTCAAATATATAATATT [XGTACX_site291],8.69 ± 0.35
6,GAGAAAGATATATACACACACATAAATATGTACATA [CACACA_site6975],8.57 ± 0.38
7,TTTACAATATTAAAATGTACATATAAAATAAATAAA [XGTACX_site8367],8.71 ± 0.4
8,TATATAGGTAAAAAATGTACTTATATTGAATATATT [XGTACX_site4414],8.34 ± 0.36
9,TTTCCCAAGCTTATTACACACAAGTAGAATAAGCTT [CACACA_site1561],8.28 ± 0.4
10,AATTTGTTAATATTTTGTACACATAATATAAAAACA [XGTACX_site2224],8.38 ± 0.32
11,GATATCAAATATAAATGTACAAATTATATATACATA [XGTACX_site3228],8.27 ± 0.28
12,TTCTTATTTATTTTCTTCTCCTTCCTCAAATTTTTT [GTGCAC_negctrl_site592],8.84 ± 0.4
13,TATATAAATGTTATCACACACTCACGTTTGACAAAA [CACACA_site6468],8.38 ± 0.26
14,TTTACAATATAAAATACACACACACTAACATATATT [CACACA_site9231],8.65 ± 0.54
15,TCCTTTTTTAAAAGTTGTACATTATTGTTATTTGTT [XGTACX_site4686],8.65 ± 0.3
16,ATACAATAAAATAAGTTTGAATAAAATTAAATATAT [CACACA_negctrl_site877],8.38 ± 0.4
17,GAAGGAAATAATAGTAGTACAAATGGTAAGAAATAT [XGTACX_site5845],9.23 ± 0.49
18,TTCCTCTTAATATGTGCACACTAAATTATAACCTAA [CACACA_site5751],8.93 ± 0.014
19,TACAAAAAAAAAAAATAGATAAAATAATAATCAAAT [TGCATGCA_negctrl_site524],8.42 ± 0.45
20,ATATATTGAACATATTGTACATTTTGTTAATATTTT [XGTACX_site7622],8.26 ± 0.52
21,TCTCAAGTTGTTAAAAAATAAAAACAATAAATCTAA [CACACA_negctrl_site165],8.22 ± 0.5
22,AACAATTGGAATAACGCATGCATTTATAATATAGAA [TGCATGCA_site298],9.66 ± 0.19

row,Sequence,gcPBM binding intensity (ln)
1,CAATTTTTTAAATGCACACAAAAGGAATAAATAAAT [CACACA_site544],8.83 ± 0.27
2,AAGAAGAAATGCTTTGCATGCAAATTTTATGCCAAC [TGCATGCA_site721],10.1 ± 0.17
3,ACAAATTTATACTTAAAACACACGTAATCATTTATA [CACACA_site1636],8.34 ± 0.45
4,TGAATATTCCTATGCACACAAATTAAAATACATAAT [CACACA_site4403],8.64 ± 0.35
5,TAAAATAATTTATGCATACACACATATATATATATA [CACACA_site4021],10.1 ± 0.47
6,TACAATTTTTTAAATGCACACAAAAGGAATAAATAA [CACACA_site8075],8.78 ± 0.16
7,AAAAGCAAGTTCCAGGGTACATATATATGAAAAAAC [XGTACX_site2408],9.03 ± 0.47
8,TAATATATGTATTGCACACCTATAACCATTATTTCT [CACACA_site1498],8.86 ± 0.11
9,AAATATATTTTACATTGTACATGAATAAACTATAAA [XGTACX_site2080],8.65 ± 0.59
10,AAAAATTAAATAAATTTACACACTAATAATTACATA [CACACA_site8260],8.2 ± 0.38
11,AAAAATATGTCCATGAAAAGGATAGGCAGGTAATCA [XGTACX_negctrl_site93],8.75 ± 0.62
12,ACGTTAAAATATTGGGTGCTAACACAATAAAAATAA,8.76 ± 0.2
13,AAATATATAAAATATACACACAGTAATATATATATA [CACACA_site1385],9.52 ± 0.35
14,TCTTGTTTTCAAATATGTACATAGAATAGACATTTT [XGTACX_site684],8.61 ± 0.38
15,ATAAAATGAACAAACACACACACATATATATATATA [CACACA_site2402],10.1 ± 0.44
16,TATATATAAATATTCAGTACATAGTATTATTAAGTA [XGTACX_site1980],8.25 ± 0.24
17,AAGTTTTATTTAAATTGTACTAAAATTTTTATATTA [XGTACX_site7065],8.28 ± 0.35
18,CCTAAAAAAAAGAAATGATATACATATGTATATATA [GTGCAC_negctrl_site100],8.54 ± 0.4
19,TATTTAAGAATATGAAGTACATATATTATTTAAAAA [XGTACX_site7897],8.15 ± 0.29
20,CATATAAATAAATACACACACACACGCCTTATAATT [CACACA_site7830],8.7 ± 0.64
21,TATATAGGTATCATTACACACATGTATACTTATTTG [CACACA_site7864],8.56 ± 0.28
22,TTTTTCTTTCTCTATTGTACACATGGAAACACATAA [XGTACX_site4601],8.93 ± 0.38

row,Sequence,gcPBM binding intensity (ln)
1,TTTTTTTTTTTTAATTGTACATTTTATATAAACTTT [XGTACX_site6806],8.57 ± 0.66
2,TGTTGATTTCTCAAATGTACTTTACTTTTCTTCAGA [XGTACX_site7916],8.46 ± 0.33
3,AATTTATTTTTTTAATGTACATATGGTATAAATATA [XGTACX_site8012],8.68 ± 0.39
4,AATATATATATATGTACACACTCCAATACATATACA [CACACA_site2682],8.59 ± 0.31
5,TTAAGAATATCTTAGAGTACATTTTATCATCTTAAA [XGTACX_site8298],7.96 ± 0.24
6,TCTTTTTAAATTACTATAATACATTCATAAATTATA [GTGCAC_negctrl_site448],8.27 ± 0.4
7,TTTTTTTATTTTATAAAGCAAAAATAAGAATGAAAT [XGTACX_negctrl_site270],8.37 ± 0.26
8,AGGGAATAAGTAAGGTGTACATAATTATGTTACTTT [XGTACX_site6152],8.77 ± 0.3
9,TATATGTATGTATGTACACACAAAAAATGGAATATA [CACACA_site3717],8.83 ± 0.38
10,ATTTAAAACAAAAGTAGTACGTCTAATAAATTCAAC [XGTACX_site4344],8.45 ± 0.34
11,TTATCAATAAAATGCACACACTGTAATATTATTAAA [CACACA_site6055],8.39 ± 0.33
12,ATATATATTTATATTTGTACGAATTAAAATTTTTTA [XGTACX_site5200],8.48 ± 0.32
13,ATAGCTTTTATTTAAAGTACAAAAAGGATGTTGAAA [XGTACX_site3810],8.46 ± 0.3
14,AAAAAAAAAAAACACACACACACACCCATACATACA [CACACA_site707],8.65 ± 0.56
15,AGACAAAATGTTTGAAGTACTTTTTATCAAATTAAA [XGTACX_site8885],8.4 ± 0.4
16,TGATTTTTTCATATTCTACACACGTGAACAAATGTG [CACACA_site8987],8.4 ± 0.44
17,TTGTTAATAAATAAATAAATAAATATATTTATATAT [GTGCAC_negctrl_site271],7.96 ± 0.42
18,TTAATTATTATATAAGTGCAATAATAAAAAGTTGTA [GTGCAC_site9552],8.65 ± 0.17
19,TTTTTTACAATTAACACACTCAAAAATAATATTAAA [CACACA_site5198],8.35 ± 0.46
20,AATTTTTTAAATGTGTGTACATATTATTTAAATAAT [XGTACX_site5967],8.5 ± 0.099
21,TATATTATATATATATGTACATATGGCAAAACATTA [XGTACX_site7958],8.89 ± 0.41
22,AAAAAAAAAAAAAAATGTACCCATAAAATAAGCATT [XGTACX_site8576],8.46 ± 0.38
